{
  "source": "PubChem BioAssay AID1030",
  "about": "(National Center for Advancing Translational Sciences (NCATS), 2008)",
  "note": "Out of some 220,000 compounds screened, about 16,000 (7.3%) were called active. Inconclusive means that the source gave no clear call. Such entries were picked first, then a sample of the others. Calls follow the shape of the dose curve; as a rule, active = well fitted inhibition curve with a large enough effect (not every such curve was filed as active); inconclusive = small, poorly fitted or top-dose-only effect, or another doubt; inactive = no such curve, though single readings can be large or run the other way. Potencies of inconclusive entries are left out as doubtful fits. Potency is read from the fitted curve at half-maximal effect; tags tell the direction and shape of the fitted curve.",
  "data": [
    {"molecular_target": "Aldehyde dehydrogenase 1A1 (Homo sapiens) (UniProt P00352)", "sequence (P00352 whole entry, looked up)": "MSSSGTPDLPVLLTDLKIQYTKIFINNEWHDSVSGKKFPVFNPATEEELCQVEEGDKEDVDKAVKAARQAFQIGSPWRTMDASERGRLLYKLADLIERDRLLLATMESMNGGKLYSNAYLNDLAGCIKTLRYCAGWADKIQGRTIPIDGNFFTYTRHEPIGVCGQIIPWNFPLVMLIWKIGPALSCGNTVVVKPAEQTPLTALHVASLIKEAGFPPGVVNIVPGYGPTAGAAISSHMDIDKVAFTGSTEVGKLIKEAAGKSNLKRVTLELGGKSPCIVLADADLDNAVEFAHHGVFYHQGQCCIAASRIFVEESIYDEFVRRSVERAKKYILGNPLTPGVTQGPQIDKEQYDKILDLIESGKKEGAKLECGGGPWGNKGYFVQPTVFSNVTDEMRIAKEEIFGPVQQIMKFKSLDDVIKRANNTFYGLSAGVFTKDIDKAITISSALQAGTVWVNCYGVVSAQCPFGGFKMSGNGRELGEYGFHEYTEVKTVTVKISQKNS", "assay": "qHTS Assay for Inhibitors of Aldehyde Dehydrogenase 1 (ALDH1A1)", "conditions": "Purified ALDH1A1, NADH fluorescence, propionaldehyde substrate; series mostly up to 75.3 µM", "values": [
      {"smiles": "NC(=O)c1ccc(NC(=O)CSc2nnc(-c3ccccn3)n2N)cc1", "Potency": "inactive"},
      {"smiles": "O=C1OCC/C1=C\\c1ccc(O)cc1", "Potency": "inactive"},
      {"smiles": "O=C(OCc1nc2ccccc2c(=O)[nH]1)c1cccs1", "Potency": "inactive"},
      {"smiles": "O=c1c2ccccc2oc2nc3n(c(=O)c12)CCCS3", "Potency": "active: 25.1 µM"},
      {"smiles": "Cc1ccccc1Nc1nc(N)nc(CSc2nnnn2-c2ccccc2)n1", "Potency": "active: 12.6 µM"},
      {"smiles": "CC(C)CSc1ncc(-c2cccc(C(F)(F)F)c2)cn1", "Potency": "active: 22.4 µM"},
      {"smiles": "CCOC(=O)C1=C(C)N=c2s/c(=C/c3ccccc3)c(=O)n2C1c1ccc(OC)c(OC)c1", "note": "(stereo unspecified)", "Potency": "inconclusive [inhibitor, partial curve]"},
      {"smiles": "CC(=O)Nc1cccc(NC(=O)c2c(-c3c(Cl)cccc3Cl)noc2C)c1", "Potency": "inconclusive [inhibitor, single point]"},
      {"smiles": "Cc1[nH][nH]c(=O)c1[C@@H](c1ccccc1[N+](=O)[O-])C(C#N)C#N", "Potency": "active: 25.1 µM"},
      {"smiles": "Cc1cccc(C)c1NC1=NC(=S)N(c2ccc(N(C)C)cc2)C1(C)C", "Potency": "inconclusive [inhibitor, single point]"},
      {"smiles": "Cn1c(CC(=O)Nc2ccc(Cl)c(Cl)c2)nnc1SCC(=O)N1CCN(c2ccccc2)CC1", "Potency": "inactive"},
      {"smiles": "Cc1nc2cc(NS(=O)(=O)c3c(C)c(C)cc(C)c3C)ccc2s1", "Potency": "inconclusive [inhibitor, single point]"},
      {"smiles": "Cc1cccc2c1-c1sc(C(=O)Nc3nccs3)cc1CO2", "Potency": "inconclusive [inhibitor, partial curve]"},
      {"smiles": "O=C(COC(=O)c1nn(-c2ccccc2)c(=O)c2ccccc12)NC1CCS(=O)(=O)C1", "note": "(stereo unspecified)", "Potency": "inconclusive [inhibitor, partial curve]"},
      {"smiles": "CCOc1ccc2[nH]c(=O)c(CN(Cc3ccc(F)cc3)C(=O)c3ccco3)cc2c1", "Potency": "inconclusive [inhibitor, single point]"},
      {"smiles": "CC1CCCCN1CCNC(=O)c1cc2c(-c3ccccc3F)nn(C)c2s1", "note": "(stereo unspecified)", "Potency": "inconclusive [inhibitor, single point]"},
      {"smiles": "CN(C)S(=O)(=O)c1ccc(NC(=O)CNc2cc(S(=O)(=O)N3CCCC3)ccc2OCC(F)(F)F)cc1", "Potency": "inconclusive [inhibitor, partial curve]"},
      {"smiles": "O=C(CSc1nnc(-c2ccc(NS(=O)(=O)c3ccccc3)cc2)o1)NCC1CCCO1", "note": "(stereo unspecified)", "Potency": "inactive"},
      {"smiles": "N#C/C(=C\\Nc1ccc2cn[nH]c2c1)c1nc(-c2ccc(Cl)cc2)cs1", "Potency": "inconclusive [inhibitor, single point]"},
      {"smiles": "COc1cc(/C=N/NC(=O)c2ccc(COc3ccccc3Cl)o2)cc(Br)c1O", "Potency": "inactive"},
      {"smiles": "Cc1ccc(OCC(=O)N/N=C/C=C/c2ccco2)cc1", "Potency": "inconclusive [inhibitor, single point]"},
      {"smiles": "COC(=O)c1sccc1NC(=O)CSc1nnnn1-c1ccccc1C", "Potency": "active: 0.562 µM"},
      {"smiles": "O=C(Nc1nnc(Cc2ccccc2)s1)c1cnccn1", "Potency": "inconclusive [inhibitor, single point]"},
      {"smiles": "CCOC(=O)N1CCC(N2CCN(Cc3ccc(C)o3)C(CCO)C2)CC1", "note": "(stereo unspecified)", "Potency": "inactive"},
      {"smiles": "CC1=C(C(=O)Nc2cccnc2)C(c2ccc(C(C)C)cc2)n2ncnc2N1", "note": "(stereo unspecified)", "Potency": "inconclusive [inhibitor, single point]"},
      {"smiles": "O=C(N/N=C/c1ccccc1O)C1SCCCS1", "Potency": "inconclusive [inhibitor, single point]"},
      {"smiles": "O=C(O)c1ccc(N=c2oc3cc(O)ccc3cc2C(=O)NCc2ccccc2)cc1", "Potency": "inconclusive [inhibitor, partial curve]"},
      {"smiles": "COc1ccccc1Oc1c(C)oc2c(CN3CCN(CCO)CC3)c(O)ccc2c1=O", "Potency": "inconclusive [inhibitor, partial curve]"},
      {"smiles": "COc1ccc(OCc2n[nH]c(=S)n2N)cc1", "Potency": "active: 4.47 µM"},
      {"smiles": "Cn1c(=O)c2c(nc(CN3CCN(C(c4ccccc4)c4ccccc4)CC3)n2CC(N)=O)n(C)c1=O", "Potency": "inactive"},
      {"smiles": "Nc1ccc2cc3ccccc3cc2c1", "Potency": "active: 2 µM"},
      {"smiles": "O=C(O)CN1C(=O)SC(Nc2ccccc2)C1=O", "note": "(stereo unspecified)", "Potency": "inactive"},
      {"smiles": "COc1ccc(C2NC(=O)NC(c3ccccc3)=C2c2nc3ccccc3s2)cc1", "note": "(stereo unspecified)", "Potency": "inconclusive [inhibitor, single point]"},
      {"smiles": "Cc1ccc(Cl)cc1-n1ncc2c(NNC(=O)c3ccco3)ncnc21", "Potency": "inactive"},
      {"smiles": "Cc1ccc(S(=O)(=O)N(CC(O)CN2C(=O)NC(C)(C)C2=O)c2ccccc2)cc1", "note": "(stereo unspecified)", "Potency": "inactive"},
      {"smiles": "COC(=O)CS", "Potency": "inactive"},
      {"smiles": "Cc1ccc(S(=O)(=O)N2CCN(C(C)C(=O)Nc3ccccc3-c3ccccc3)CC2)cc1", "note": "(stereo unspecified)", "Potency": "active: 7.94 µM"},
      {"smiles": "COc1cccc(CC2(CO)CCCN(Cc3ccc(CO)o3)C2)c1", "note": "(stereo unspecified)", "Potency": "inactive"},
      {"smiles": "COC(=O)c1ccc(C(NC(=O)c2ccccc2)[C@]2(C)C[C@H]2C2CCCCC2)cc1", "note": "(stereo partly specified)", "Potency": "active: 1.26 µM"},
      {"smiles": "O=C(Nc1c2ccccc2nc2ccccc12)C(Cl)(Cl)Cl", "Potency": "inconclusive [inhibitor, partial curve]"},
      {"smiles": "CC1CCCN(C(=O)CSCC(=O)Nc2nc(-c3cccs3)cs2)C1", "note": "(stereo unspecified)", "Potency": "inconclusive [inhibitor, single point]"},
      {"smiles": "O=[N+]([O-])c1c(NCCO)cc(N2CCCCC2)c2nonc12", "Potency": "inconclusive [inhibitor, single point]"},
      {"smiles": "Cc1ccc(C(=O)NCC#N)cc1", "Potency": "inactive"},
      {"smiles": "CC(=O)NC(NC(C)=O)c1ccc(Br)cc1", "Potency": "inactive"},
      {"smiles": "O=[N+]([O-])c1cc(C(F)(F)F)ccc1N1CCN(S(=O)(=O)c2ccc3c(c2)CCCC3)CC1", "Potency": "inactive"},
      {"smiles": "Cc1cc(NC(=O)c2ccccc2Cl)no1", "Potency": "inactive"},
      {"smiles": "Cc1ccc(NC(=O)C2CCN(S(=O)(=O)c3c(C)[nH]c(=O)[nH]c3=O)CC2)cc1", "Potency": "inactive"},
      {"smiles": "COc1ccc(S(=O)(=O)N2CCC(N3CCN(Cc4ccccc4)CC3)CC2)cc1", "Potency": "inconclusive [inhibitor, single point]"},
      {"smiles": "COc1ccc(NC(=O)c2cccc(C#N)c2)cc1NS(=O)(=O)c1ccc(F)cc1", "Potency": "inconclusive [inhibitor, single point]"},
      {"smiles": "COc1ccc(-c2[nH]c3ccccc3c2SCCNC(=O)c2ccccc2)cc1", "Potency": "inconclusive [inhibitor, partial curve]"},
      {"smiles": "CC1CCCN(C(=O)c2ccc3c(=O)n(C4CCCC4)c(=S)[nH]c3c2)C1", "note": "(stereo unspecified)", "Potency": "active: 3.55 µM"},
      {"smiles": "O=C(NC(=S)Nc1cccc(CO)c1)c1ccc(-c2ccccc2)cc1", "Potency": "active: 12.6 µM"},
      {"smiles": "Cn1cnnc1SCc1ccc(C(=O)N/N=C(\\CCC(=O)O)c2ccc(C(C)(C)C)cc2)cc1", "Potency": "inconclusive [inhibitor, single point]"},
      {"smiles": "COC(=O)c1ccccc1NC(=O)N[C@@H](C)C(=O)OC", "Potency": "inconclusive [inhibitor, partial curve]"},
      {"smiles": "C/C(Cn1nc([N+](=O)[O-])cc1C)=N\\NC(=O)c1cccc(Br)c1", "Potency": "inconclusive [inhibitor, single point]"},
      {"smiles": "N#CC1=C(N)OC(c2ccccc2)=C(C#N)C1c1ccc2c(c1)OCO2", "note": "(stereo unspecified)", "Potency": "active: 1 µM"},
      {"smiles": "O=C(CCSCc1ccccc1Cl)N1CCN(c2cccc(Cl)c2)CC1", "Potency": "inactive"},
      {"smiles": "COc1ccc(NC(=O)CN2CCN(CC(=O)Nc3ccc4c(c3)OCO4)CC2)cc1", "Potency": "active: 6.31 µM"},
      {"smiles": "O=c1[nH]c(/C=C/c2ccc(OC(F)F)cc2)nc2c1cnn2-c1ccccc1", "Potency": "inconclusive [inhibitor, single point]"},
      {"smiles": "COc1cccc(-n2c([S-])c(C(=O)Nc3ccc(C(F)(F)F)cc3)[n+]3ccccc23)c1", "Potency": "inconclusive [inhibitor, single point]"},
      {"smiles": "Brc1ccc(CSc2ccc(-c3ccco3)nn2)cc1", "Potency": "inconclusive [inhibitor, single point]"},
      {"smiles": "COc1ccccc1N=CC1=C(O)CC(c2ccccc2)CC1=O", "note": "(stereo unspecified)", "Potency": "inconclusive [inhibitor, full curve]"},
      {"smiles": "O=C(NC1=NCCS1)c1ccc(Cl)c(S(=O)(=O)N2CCCC2)c1", "Potency": "inconclusive [inhibitor, partial curve]"},
      {"smiles": "Cc1nc(N[C@@H](Cc2ccccc2)C(=O)O)c2oc3ccccc3c2n1", "Potency": "active: 17.8 µM"},
      {"smiles": "COc1ccc(C2CC(c3ccccc3)=NN2c2ccccc2)c(C(=O)O)c1OC", "note": "(stereo unspecified)", "Potency": "inconclusive [inhibitor, partial curve]"},
      {"smiles": "C=CCn1c(-c2ccc3[nH]c(C)c(C)c3c2)n[nH]c1=S", "Potency": "active: 12.6 µM"},
      {"smiles": "N#C/C(=C/c1cn(-c2ccccc2)nc1-c1cccc(S(=O)(=O)N2CCCC2)c1)C(=O)NCc1ccco1", "Potency": "inconclusive [inhibitor, partial curve]"},
      {"smiles": "CC1CC1C(=O)Nc1nc(-c2ccccc2)cs1", "note": "(stereo unspecified)", "Potency": "active: 10 µM"},
      {"smiles": "CC1=CC2=NC(=O)CC(C)(C(=O)N(CC(=O)NC(C)(C)C)C3CCCC3)N2C=C1", "note": "(stereo unspecified)", "Potency": "inconclusive [inhibitor, partial curve]"},
      {"smiles": "Cc1c(CC=C(Cl)Cl)c(=O)[nH]c2c(C)cccc12", "Potency": "inactive"},
      {"smiles": "COCC(=O)N(c1ccccc1)C(C)C(=O)OC", "note": "(stereo unspecified)", "Potency": "inconclusive [inhibitor, single point]"},
      {"smiles": "CCCn1c(NC(=O)C2CCN(S(=O)(=O)c3cccs3)CC2)nc2ccccc21", "Potency": "inconclusive [inhibitor, single point]"},
      {"smiles": "CC(=O)NC(CC(=O)NC1CCCCCC1)c1ccccc1", "note": "(stereo unspecified)", "Potency": "inactive"},
      {"smiles": "CC(=O)NC(C)c1nc2ccccc2n1CC(=O)NC(C)CCc1ccccc1", "note": "(stereo unspecified)", "Potency": "inactive"},
      {"smiles": "O=C1C=C(NC2=CC3OC(c4ccccc4)OCC3OC2=O)CCC1", "note": "(stereo unspecified)", "Potency": "inactive"},
      {"smiles": "CCOC(=O)OCC1OC(c2cc(C)cc(C)c2)C=CC1OC(=O)OCC", "note": "(stereo unspecified)", "Potency": "inconclusive [inhibitor, single point]"}
    ]}
  ]
}
